Results as given in the supplement of paper PMC11417369.
This is one part of the list.

These sequences were tested on PF3D7_0420300 AP2 domain 1 (GST-tagged) (assay: gcPBM binding intensity (ln(normalized median fluorescence intensity)); higher = stronger DNA binding).
Method in brief: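 Binding intensity is the highest Masliner-normalised natural-log median intensity over replicate spots in either probe orientation. To obtain it, GST-tagged P. falciparum DNA-binding domains made in E. coli were incubated for 1 h on an Agilent 4 × 180k array of primer-extended double-stranded 36-bp intergenic genomic probes plus negative controls. Detection used Alexa488 anti-GST antibody with scanning at 488 nm.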
“ATTTGTATATATAATTGTACGCATATTCTATACGAT [XGTACX_site7367]” was tested, and the “gcPBM binding intensity (ln)” value was 9.22.
“ATACTTTATAAATACTAAAGTGTATTTTGTAATATA [CACACA_negctrl_site1710]” was tested, and the “gcPBM binding intensity (ln)” value was 9.1.
With “TGTAGAAGAACCCATGCATGCAGTATGAAAAAAAAA [TGCATGCA_site907]” the “gcPBM binding intensity (ln)” value was 9.19.
With “AAAAAAAGAAAAAAACGTACATGAAAATTTTTTGTT [XGTACX_site5135]” the “gcPBM binding intensity (ln)” value was 9.42.
For “ATAAATCCCAAAACCTTGCAAGACAACGTTTGATCA [CACACA_negctrl_site1327]”, the “gcPBM binding intensity (ln)” value was 9.17.
In the case of “CTATATAAAAAAATTGCACACATAAATATATACATA [CACACA_site8325]”, the “gcPBM binding intensity (ln)” value is reported as 9.62.
With TTCTAAAATTATATAGTGCAATTATTTTATTTTTCT the “gcPBM binding intensity (ln)” value was 9.17.
In the case of “AAAAAAATAAAACACATACATATATGTATATATATA [GTGCAC_negctrl_site390]”, the “gcPBM binding intensity (ln)” value is reported as 9.47.
In the case of TAAATATATATATAAGTGCATTATATATATATATAA, the “gcPBM binding intensity (ln)” value is reported as 9.
In the case of “ATATGATAGTTTATATGTACATAAATAAATACATAC [XGTACX_site2917]”, the “gcPBM binding intensity (ln)” value is reported as 9.34.
In the case of “ATCTCTTACATATTCACACACATATAAATAACTACA [CACACA_site6816]”, the “gcPBM binding intensity (ln)” value is reported as 9.73.
“ATTAATAATTATTATGGTACACATGTAACTACTCTC [XGTACX_site198]” was tested, and the “gcPBM binding intensity (ln)” value was 9.21.
With “AAAGAAAAAAAATAATGTACATATGTATTTGAGAAA [XGTACX_site3571]” the “gcPBM binding intensity (ln)” value was 9.41.
With “TATATTATAATATTCACACACTAACGTAAATCATTG [CACACA_site7318]” the “gcPBM binding intensity (ln)” value was 9.42.
“TGGCAAAATAGGCACACACACATATACAGATATATT [CACACA_site4727]” was tested, and the “gcPBM binding intensity (ln)” value was 9.9.
For “TCAATGAAATTAATATGTACATATTTTTATATAGTA [XGTACX_site7955]”, the “gcPBM binding intensity (ln)” value was 9.07.
In the case of “AAAAAATATATATATATATATATGTAATATTTTTTT [XGTACX_negctrl_site439]”, the “gcPBM binding intensity (ln)” value is reported as 9.07.
For “AAAACTATAAAAATTTTACACACTGTTTTTAAATAA [CACACA_site3667]”, the “gcPBM binding intensity (ln)” value was 9.17.
For “TGATCAAGTAAGAAAAGTACAAAAAAAGTAAAAAAT [XGTACX_site6529]”, the “gcPBM binding intensity (ln)” value was 9.4.
“GTTCTTTCAAATTATACACACCAAAAAAAAAAAAAA [CACACA_site5660]” was tested, and the “gcPBM binding intensity (ln)” value was 9.18.
In the case of GCGTGTGTACAATGAGTGCATATCTAAAGGGAAGAT, the “gcPBM binding intensity (ln)” value is reported as 9.77.
In the case of ATAAGTTTTTATTTTCTGCACTGTCGAATAATAGTT, the “gcPBM binding intensity (ln)” value is reported as 9.27.
In the case of “GATATGTTTTATTATGTTGATGATAACAGGTAGTTT [CACACA_negctrl_site356]”, the “gcPBM binding intensity (ln)” value is reported as 9.35.
In the case of “AAAAAAAACATACATACACACACATAAATATATATA [CACACA_site8864]”, the “gcPBM binding intensity (ln)” value is reported as 10.3.
In the case of “ATGGATTATTTTTAAACATGCAGTAGTGATGAAAAA [TGCATGCA_site346]”, the “gcPBM binding intensity (ln)” value is reported as 9.18.
“TGTTCAGTATGGCACACACACAACAAAATAAAAAAA [CACACA_site4368]” was tested, and the “gcPBM binding intensity (ln)” value was 9.61.
For “GGTTTACCCTATAAATGTACTCATAAATTATATATA [XGTACX_site5771]”, the “gcPBM binding intensity (ln)” value was 9.2.
In the case of “ATACGAAATAGAAACACACATACAATAAATAAATAT [CACACA_site2017]”, the “gcPBM binding intensity (ln)” value is reported as 9.99.
“TTTTTTTTTTTTTTTTGTACATATACATATATATAT [XGTACX_site1981]” was tested, and the “gcPBM binding intensity (ln)” value was 8.98.
With “AGTAGCAAATATTAAGTGCATATTATATAATGTGTA [GTGCAC_site9546]” the “gcPBM binding intensity (ln)” value was 9.32.
In the case of “ATAAATATGGCAGTACGTACGTATATTCATATTCAT [XGTACX_site8042]”, the “gcPBM binding intensity (ln)” value is reported as 9.37.
“ATTAAAAAAAAAAAAAAAAAACAAAAAAAAAAAAAA [CACACA_negctrl_site1187]” was tested, and the “gcPBM binding intensity (ln)” value was 8.45.
With “TATATAAACATCGGTAGTACACACATTCATGTATTT [XGTACX_site6443]” the “gcPBM binding intensity (ln)” value was 9.6.
In the case of “GGATCATTTTTAAAGGAACACACAAAAAAAATTATA [CACACA_site8381]”, the “gcPBM binding intensity (ln)” value is reported as 9.2.
For “ATGATATGGATAAATACACACAATATAATAATGGGT [CACACA_site4905]”, the “gcPBM binding intensity (ln)” value was 9.86.
For “AAAAAAAACAGACACACACACATTCAATATAAAACA [CACACA_site41]”, the “gcPBM binding intensity (ln)” value was 10.2.
In the case of “ATATCTTATATTATCACACACACACCCACAAAACAG [CACACA_site1464]”, the “gcPBM binding intensity (ln)” value is reported as 10.
In the case of “ATATGTATAAATATAAATATATATATATATATATAT [CACACA_negctrl_site705]”, the “gcPBM binding intensity (ln)” value is reported as 9.15.
With “ATTTTATATATGTGTTGTACGGTGAACATTTTGATA [XGTACX_site6538]” the “gcPBM binding intensity (ln)” value was 9.44.
“ACGTTAATATCTACAAGTACCCACATTAACAGGAAA [XGTACX_site2616]” was tested, and the “gcPBM binding intensity (ln)” value was 9.31.
“TGCGGAAATAAGTGCACACATAGATATATGTATTTT [CACACA_site3689]” was tested, and the “gcPBM binding intensity (ln)” value was 9.44.
With “ATCTATATCTATAATACACACATCATAAAATATGTA [CACACA_site7230]” the “gcPBM binding intensity (ln)” value was 9.5.
In the case of “ATATTATATATGTATAGTACATATTATAAGAAAAAT [XGTACX_site3457]”, the “gcPBM binding intensity (ln)” value is reported as 9.27.
“ATATATATTAATAATGCATGTGATATAAATTAATAT [TGCATGCA_site930]” was tested, and the “gcPBM binding intensity (ln)” value was 9.3.
For “CGGCACATTCTATATACACACATATAAATATATACA [CACACA_site566]”, the “gcPBM binding intensity (ln)” value was 9.56.
